Experimental data from the supplement of paper PMC7125110.
± gives the standard error. Variants at the background level are over-represented here.

B1: glmS ribozyme (parent)
chain: AUAAAAGCGCCAGAACUACAGAAAUGUAGUUGACGAGGAGGAGGUUUAUCGAAUUUUCGGCGGAUGCCUCCAAA

Assays:
Details in all cases: with glucosamine-6-phosphate
[1] = variants of: B1; assay: self-cleavage kobs at 40 uM GlcN6P; higher = faster cleavage; RNA array
Summary of the method: (§1)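 Sequenced MiSeq chips were the platform: E. coli RNA polymerase transcribed barcoded ribozyme variants on them in situ, and a hybridised Cy3 probe tracked these at 37 °C. After glucosamine-6-phosphate (40 μM to 10 mM) in HEPES/KCl/Mg(OAc)2 buffer was flowed in, tiles were imaged over ~14 h. Signals normalised to baseline and to non-cleaving reference variants were reduced to per-tile medians and fit to one- or two-exponential decays to obtain kobs. kcat and KM were derived through weighted Michaelis–Menten fits across concentrations.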

[2] = variants of: B1; assay: self-cleavage kobs at 640 uM GlcN6P; higher = faster cleavage; RNA array
Summary of the method: as §1

[3] = variants of: B1; assay: self-cleavage kobs at 160 uM GlcN6P; higher = faster cleavage; RNA array
Summary of the method: as §1

[4] = variants of: B1; assay: self-cleavage kobs at 2500 uM GlcN6P; higher = faster cleavage; RNA array
Summary of the method: as §1

[5] = variants of: B1; assay: self-cleavage kobs at 10000 uM GlcN6P; higher = faster cleavage; RNA array
Summary of the method: as §1

| Variant | self-cleavage kobs at 40 uM GlcN6P [1] | self-cleavage kobs at 640 uM GlcN6P [2] | self-cleavage kobs at 160 uM GlcN6P [3] | self-cleavage kobs at 2500 uM GlcN6P [4] | self-cleavage kobs at 10000 uM GlcN6P [5] |
| --- | --- | --- | --- | --- | --- |
| C16A G60U C68U | < 1e-05 s⁻¹ | < 1e-05 s⁻¹ | < 1e-05 s⁻¹ | < 1e-05 s⁻¹ |  |
| C16A G66C | < 1e-05 s⁻¹ |  |  |  | 2.41e-05 ± 1.1e-05 s⁻¹ |
| C16A U31C A42G G44U C70G | < 1e-05 s⁻¹ |  |  |  |  |
| C16A U49A | < 1e-05 s⁻¹ |  |  |  | < 1e-05 s⁻¹ |
| C16A U49G | < 1e-05 s⁻¹ | < 1e-05 s⁻¹ | < 1e-05 s⁻¹ |  |  |
| C16A U56G C68A | < 1e-05 s⁻¹ |  |  |  |  |
| C16A U56G G60U | < 1e-05 s⁻¹ | < 1e-05 s⁻¹ |  |  |  |
| C16G A36C G66A | < 1e-05 s⁻¹ |  |  |  |  |
| C16G A36G | < 1e-05 s⁻¹ |  |  |  |  |
| C16G A36G U49G | < 1e-05 s⁻¹ |  |  |  | < 1e-05 s⁻¹ |
| C16G A39C C50A U55A | < 1e-05 s⁻¹ |  |  |  |  |
| C16G A39G G51U U55A | < 1e-05 s⁻¹ |  |  |  |  |
| C16G A42U U45G | < 1e-05 s⁻¹ |  |  |  |  |
| C16G A53G C67A | 2.96e-05 ± 1.3e-05 s⁻¹ |  |  |  | 0.000212 ± 5.9e-05 s⁻¹ |
| C16G A64C | < 1e-05 s⁻¹ |  | < 1e-05 s⁻¹ |  |  |
| C16G A64G C68G | < 1e-05 s⁻¹ |  |  |  |  |
| C16G C34A | < 1e-05 s⁻¹ | < 1e-05 s⁻¹ |  |  | < 1e-05 s⁻¹ |
| C16G C34A C71A | < 1e-05 s⁻¹ |  |  | < 1e-05 s⁻¹ |  |
| C16G C71U | 0.000132 ± 1.8e-05 s⁻¹ | 0.000865 ± 0.00012 s⁻¹ | 0.000323 ± 5.6e-05 s⁻¹ |  |  |
| C16G G35A | < 1e-05 s⁻¹ | < 1e-05 s⁻¹ | < 1e-05 s⁻¹ |  | < 1e-05 s⁻¹ |
| C16G G35A A42U | < 1e-05 s⁻¹ |  |  |  | < 1e-05 s⁻¹ |

| Variant | self-cleavage kobs at 40 uM GlcN6P [1] | self-cleavage kobs at 640 uM GlcN6P [2] | self-cleavage kobs at 160 uM GlcN6P [3] | self-cleavage kobs at 2500 uM GlcN6P [4] | self-cleavage kobs at 10000 uM GlcN6P [5] |
| --- | --- | --- | --- | --- | --- |
| C16G G35U A64U | < 1e-05 s⁻¹ |  |  |  |  |
| C16G G38C A42G A52C | < 1e-05 s⁻¹ |  |  |  |  |
| C16G G38C U45G | < 1e-05 s⁻¹ |  |  |  |  |
| C16G G38U G59C U65C | < 1e-05 s⁻¹ |  |  |  |  |
| C16G G40A A53G C68U | < 1e-05 s⁻¹ |  |  |  |  |
| C16G G44U C58G G66A | < 1e-05 s⁻¹ |  |  |  |  |
| C16G G44U U47C A52C U56G | < 1e-05 s⁻¹ |  |  |  | < 1e-05 s⁻¹ |
| C16G G51C | < 1e-05 s⁻¹ |  |  |  |  |
| C16G G63C | < 1e-05 s⁻¹ | < 1e-05 s⁻¹ |  |  | < 1e-05 s⁻¹ |
| C16G U30C A64U | < 1e-05 s⁻¹ |  |  |  |  |
| C16G U30C C67A | < 1e-05 s⁻¹ |  |  |  |  |
| C16G U30G C61G | < 1e-05 s⁻¹ |  |  |  | < 1e-05 s⁻¹ |
| C16G U47A | 6.21e-05 ± 9.9e-06 s⁻¹ |  | 0.00027 ± 3.9e-05 s⁻¹ |  |  |
| C16G U49A A64U G66C | < 1e-05 s⁻¹ |  |  |  |  |
| C16G U49C G59U | < 1e-05 s⁻¹ |  |  |  | < 1e-05 s⁻¹ |
| C16G U54G | 0.000177 ± 3.8e-05 s⁻¹ | 0.00211 ± 0.0008 s⁻¹ | 0.000312 ± 6.7e-05 s⁻¹ | 0.00175 ± 0.0004 s⁻¹ | 0.00291 ± 0.00046 s⁻¹ |
| C16G U69C | 5.13e-05 ± 2e-05 s⁻¹ |  |  |  | 0.000195 ± 5.5e-05 s⁻¹ |
| C16U A36C A42G U46C | < 1e-05 s⁻¹ |  |  |  | < 1e-05 s⁻¹ |
| C16U A42U G62A C67A | < 1e-05 s⁻¹ |  |  |  | < 1e-05 s⁻¹ |
| C16U A53C | 0.000147 ± 2.2e-05 s⁻¹ |  |  |  |  |
| C16U C34A A39U A52U C70A | < 1e-05 s⁻¹ | < 1e-05 s⁻¹ |  |  |  |

| Variant | self-cleavage kobs at 40 uM GlcN6P [1] | self-cleavage kobs at 640 uM GlcN6P [2] | self-cleavage kobs at 160 uM GlcN6P [3] | self-cleavage kobs at 2500 uM GlcN6P [4] | self-cleavage kobs at 10000 uM GlcN6P [5] |
| --- | --- | --- | --- | --- | --- |
| C16U C34U A64U U65G C71U | < 1e-05 s⁻¹ |  |  |  | < 1e-05 s⁻¹ |
| C16U C34U G37U | < 1e-05 s⁻¹ |  |  |  |  |
| C16U C50G G62A C67G | 6.99e-05 ± 1.9e-05 s⁻¹ | 0.000337 ± 7.8e-05 s⁻¹ |  |  | 9.28e-05 ± 1.6e-05 s⁻¹ |
| C16U C71G | 6.56e-05 ± 7.6e-06 s⁻¹ | 0.000313 ± 4.5e-05 s⁻¹ | 0.00019 ± 2.6e-05 s⁻¹ | 0.000215 ± 3.4e-05 s⁻¹ | 0.000726 ± 0.0001 s⁻¹ |
| C16U G32C | < 1e-05 s⁻¹ |  |  |  |  |
| C16U G32U A48U U55G | < 1e-05 s⁻¹ |  |  |  |  |
| C16U G38U | < 1e-05 s⁻¹ | < 1e-05 s⁻¹ |  |  | < 1e-05 s⁻¹ |
| C16U G40A | 0.000204 ± 2e-05 s⁻¹ | 0.000996 ± 0.00017 s⁻¹ | 0.000448 ± 7e-05 s⁻¹ | 0.00398 ± 0.00098 s⁻¹ | 0.00622 ± 0.00083 s⁻¹ |
| C16U G40U G60C | < 1e-05 s⁻¹ |  |  |  |  |
| C16U G41U C67U | < 1e-05 s⁻¹ |  |  |  |  |
| C16U G44C | < 1e-05 s⁻¹ |  |  |  |  |
| C16U G60C C67A | < 1e-05 s⁻¹ |  |  |  |  |
| C16U G62A | < 1e-05 s⁻¹ |  |  | < 1e-05 s⁻¹ | < 1e-05 s⁻¹ |
| C16U G63C C67G | < 1e-05 s⁻¹ |  |  |  |  |
| C16U G66A | 0.000448 ± 9.7e-05 s⁻¹ | 0.00417 ± 0.00068 s⁻¹ | 0.00133 ± 0.00023 s⁻¹ | 0.00873 ± 0.0019 s⁻¹ | 0.0329 ± 0.014 s⁻¹ |
| C16U U30A | 7.15e-05 ± 7.9e-06 s⁻¹ | 0.000648 ± 0.00011 s⁻¹ | 0.000131 ± 2.6e-05 s⁻¹ | 0.00171 ± 0.00029 s⁻¹ | 0.00242 ± 0.00027 s⁻¹ |
| C16U U30G A33G U45G | < 1e-05 s⁻¹ |  |  |  | < 1e-05 s⁻¹ |
| C16U U30G G35U G38C | < 1e-05 s⁻¹ |  |  |  |  |
| C16U U47G | 0.000296 ± 4.7e-05 s⁻¹ |  |  |  |  |
| C16U U54A | 0.000888 ± 0.00012 s⁻¹ | 0.00323 ± 0.00079 s⁻¹ | 0.00185 ± 0.0004 s⁻¹ | 0.00607 ± 0.0014 s⁻¹ | 0.0405 ± 0.0081 s⁻¹ |
| C19A A33G A36G G40A A42G G62U G63A C71A | < 1e-05 s⁻¹ |  |  | < 1e-05 s⁻¹ |  |
